# From the supplement of paper PMC12217912
# This is one part of the list. The full chains were built here from the parent and the listed change. Inactive controls read about 0.05.
# B1: TEV protease; numbered along this chain (parent)
# chain: MGESLFKGPRDYNPISSSICHLTNESDGHTTSLYGIGFGPFIITNKHLFRRNNGTLVVQSLHGVFKVKDTTTLQQHLVDGRDMIIIRMPKDFPPFPQKLKFREPQREERICLVTTNFQTKSMSSMVSDTSCTFPSGDGIFWKHWIQTKDGQCGSPLVSTRDGFIVGIHSASNFTNTNNYFTSVPKNFMELLTNQEAQQWVSGWRLNADSVLWGGHKVFMVKPEEPFQPVKEATQL
# Variants of: B1
# Assay: raw area under fraction-flipped curve 0-4 h after induction (AUC4h, not background-subtracted), DNA-recorder readout of cleavage of the substrate (dimensionless); higher = more cleavage of the substrate by the protease variant
# Details: temperature: 34 °C; time window: 0-4 h after rhamnose induction
# Method: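 In vivo DNA recorder in E. coli TOP10(DE3) ΔrhaA at 34 °C. Each TEVp single-site mutant (parent TEVp 0) is paired with a single-site variant of the 7-mer TEVs (canonical ENLYFQ|S). The substrate sits between flexible linkers in a Bxb1-sfGFP-TEVs-SsrA fusion, so cleavage stabilises Bxb1 and speeds flipping of a recombination array, read by NGS. The value is the raw area under the fraction-flipped curve over 0-4 h after rhamnose induction (AUC4h), with ≥20 reads per time point. It is not background-subtracted; inactive controls average about 0.047.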
# 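Note: Bxb1 expression induced with 0.2% (w/v) L-rhamnose at OD600 near 0.5, cultures sampled hourly, flipped fraction per protease–substrate barcode pair counted by paired-end Illumina sequencing.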
Variant,area with substrate ENLAFQS,area with substrate ENLDFQS,area with substrate ENLEFQS,area with substrate ENLFFQS,area with substrate ENLGFQS,area with substrate ENLHFQS,area with substrate ENLIFQS,area with substrate ENLKFQS,area with substrate ENLNFQS,area with substrate ENLPFQS,area with substrate ENLSFQS,area with substrate ENLVFQS,area with substrate ENLQFQS,area with substrate ENLRFQS,area with substrate ENLWFQS,area with substrate ENLCFQS,area with substrate ENLLFQS,area with substrate ENLMFQS,area with substrate ENLTFQS
F180W,0.06,0.0531,0.0661,0.0562,0.0644,0.0598,0.069,0.0721,0.0587,0.0387,0.0588,0.0498,,,,,,,
F180G,0.0544,,0.0455,0.064,0.0565,0.0674,0.0427,0.0631,,0.0726,0.0646,0.0606,0.0766,0.0818,0.0584,,,,
V210L,0.061,0.0687,0.0525,0.0707,,0.0571,,0.0714,0.0603,,0.0186,0.073,0.0627,0.0619,0.0703,0.0717,0.0609,0.0677,
V210C,0.0638,,0.0561,0.0728,0.0689,0.0651,0.0743,0.0722,0.0605,0.0551,0.0477,0.064,0.0653,0.0715,0.0653,0.0455,0.0576,,
V210S,0.0506,0.0595,0.0562,0.0642,,0.0584,0.0599,0.0629,0.0524,0.0793,0.0138,,0.0688,0.0648,,0.0664,0.0568,,
V210Q,0.0605,0.0573,0.069,0.0642,0.0664,0.06,0.0764,0.0707,0.0682,0.0662,,0.0656,0.0707,0.0598,0.06,,0.0524,0.0776,
N175R,0.0699,,0.0714,0.114,,,0.0994,0.0645,0.0713,0.0663,,0.149,,,0.0813,,,0.115,
W212Q,0.0576,0.0795,,0.0832,,0.0635,,0.0927,0.0597,,0.0706,,0.0773,0.0727,0.0693,0.0599,0.0691,0.0042,
S201A,0.0555,0.0847,0.0817,0.075,,0.0637,0.0654,0.0732,0.078,0.0502,0.0559,,0.0599,0.0665,0.0611,0.111,0.0715,0.0697,
E189M,0.0681,0.048,0.0582,0.0753,,0.0461,0.0756,0.0682,0.0411,0.0798,0.053,0.0778,0.0767,0.0587,0.0624,0.0846,0.0697,0.0702,
N193T,0.0497,0.0643,,0.0842,,0.0573,0.0872,0.0773,,0.0625,0.0715,,,0.0689,,0.0646,0.0562,,
Q227S,0.0305,0.0537,0.0611,0.0997,,0.0768,0.08,0.0941,0.0539,0.0557,0.0761,0.0947,,0.0737,0.0736,,,,0.0722
